Target: T1, FGFR1c ligand-binding domain (UniProt P11362 142-365)
T1 sequence (looked up): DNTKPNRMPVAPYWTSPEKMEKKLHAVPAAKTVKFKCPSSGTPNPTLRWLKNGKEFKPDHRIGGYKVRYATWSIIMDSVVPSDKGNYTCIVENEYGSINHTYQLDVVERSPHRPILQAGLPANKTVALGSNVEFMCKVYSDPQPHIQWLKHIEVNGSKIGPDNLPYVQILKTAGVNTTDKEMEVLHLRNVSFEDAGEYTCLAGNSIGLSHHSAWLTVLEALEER
Assay: SEC-MALS

stoichiometry N: 1
B1: wild-type FGF1 (fibroblast growth factor 1) (ligand)
chain: not shown

Source: article PMC5821125 (Cell reports, 2017)
